The record followed here is PubChem BioAssay AID1745853 (National Center for Advancing Translational Sciences (NCATS), 2022).

The list shows a part of the results. The main result of the screen is listed elsewhere. These columns were measured beside it and carry no call.

Common to all, as to test: Primary Screen for Target Class Profiling of Small Molecule Inhibitors of Methyltransferases
Experiment [1] concerns the target Glycine N-methyltransferase (Homo sapiens) (UniProt Q14749). The settings on record: purified enzyme, MTase-Glo SAH luminescence; measured here: GNMT inhibition; at 40 µM; stronger effect = lower value. The procedure, abridged: (§1)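 Each enzyme was reacted with SAM and its substrate, with compounds tested once at 40 uM; SAH formed was read by MTase-Glo luminescence.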
Experiment [2] concerns the target Guanidinoacetate N-methyltransferase (Homo sapiens) (UniProt Q14353). Particulars: purified enzyme, MTase-Glo SAH luminescence; measured here: GAMT inhibition; at 40 µM; stronger effect = lower value. The method, boiled down: as §1
Experiment [3] addresses Histamine N-methyltransferase (Homo sapiens) (UniProt P50135). The settings on record: purified enzyme, MTase-Glo SAH luminescence; measured here: HNMT inhibition; at 40 µM; stronger effect = lower value. The method, boiled down:
as §1

Experiment [4] addresses Nicotinamide N-methyltransferase (Homo sapiens) (UniProt P40261). The settings on record: purified enzyme, MTase-Glo SAH luminescence; measured here: NNMT inhibition; at 40 µM; stronger effect = lower value. The method, boiled down: as §1
In experiment [5] the target is Phenylethanolamine N-methyltransferase (Homo sapiens) (UniProt P11086). Particulars: purified enzyme, MTase-Glo SAH luminescence; measured here: PNMT inhibition; at 40 µM; stronger effect = lower value. The method, boiled down:
as §1
% is scaled to controls: 0 for no effect and ±100 for the full control effect.

Regarding `COC(=O)c1ncn2c1C(=O)N(Cc1ccccc1)C(C)(C(=O)NC1CCCC1)C2` (stereo not drawn), the activity change, negative = inhibition was 5.41% in experiment [1]; 0% in experiment [2]; 0.292% in experiment [3]; 3.86% in experiment [4]; -0.49% in experiment [5].
In the case of `CSC(Cc1ccc(Cl)cc1)C(=O)Nc1ccc(Cl)cc1C(=O)O` (stereo not drawn), the results for the activity change, negative = inhibition in experiment [2], in experiment [4] and in experiment [5] were -2.45%, -18.3% and 5.61%, respectively.
With `CN1C(=O)N(c2cc(Cl)cc(Cl)c2)C(=O)[C@@]1(C)Cc1ccc(Br)cc1`, the activity change, negative = inhibition was 3.17% in experiment [1]; 4.22% in experiment [2]; 7.29% in experiment [3]; -14.8% in experiment [4]; -0.742% in experiment [5].
Taken in the same sequence, the figures for `CC(=O)/C=C/C1C(C)CC(O[C@@H]2O[C@H](CO)[C@@H](O)[C@H](O)[C@H]2O)CC1(C)C` (stereo partly drawn) were 0.673%, 1.54%, 9.28%, -12.2% and 2.77%.
Taken in the same sequence, the figures for `O=C(CCc1nnc2n(CCc3ccccc3)c(=O)c3ccccc3n12)N1CCC(N2CCCCC2)CC1` were -4.83%, 3.78%, -69.8%, 4.7% and -4.27%.
The like results for `CCc1noc([C@@H]2CC(F)(F)CN2C(=O)c2ccn(CC)n2)n1` were, in that order, -2.25%, -0.628%, 0.16%, -2.4% and 0.552%.
Turning to `CN1C(=O)c2cc(C(=O)NCCCN3CCc4ccccc4C3)nn2CC1(C)C(=O)NC1CCCC1` (stereo not drawn), the activity change, negative = inhibition was -14.3% in experiment [1]; 0% in experiment [2]; -7.06% in experiment [3]; -7.71% in experiment [4]; -9.82% in experiment [5].
Taken in the same sequence, the figures for `CCCNC(=O)N(C1CCOCC1)C1CCN(C(=O)Cc2cccnc2)CC1` were -0.955%, 0.634%, -0.161%, 4.24% and 14.6%.
Taken in the same sequence, the figures for `O=C(Cc1cccc(Cl)c1)NCCNC(=O)c1cccc(-c2ccsc2)c1` were -3.56%, -3.89%, 0.35%, -4.62% and -3.37%.
The like results for `O=C(c1ccc(F)cc1)N1CCCC(C(=O)N2CCCC2c2nc3ccncc3[nH]2)C1` (stereo not drawn) were, in that order, -5.28%, -6.59%, -2.29%, -12.3% and -10.5%.
For the molecule `CC1c2cccn2CCN1C(=O)Nc1ccc(F)c(Cl)c1` (stereo not drawn), the activity change, negative = inhibition in experiment [1] is -2.27%; in experiment [2], 0%; in experiment [3] it was 5.78%; in experiment [4] it was -6.96%; in experiment [5], -0.069%.
Taken in the same sequence, the figures for `Cc1ccc(NC(=O)Cn2nc3n(C)c(=O)c4ccc(C(=O)NC5CCCCC5)cc4n3c2=O)cc1F` were 1.94%, 0.864%, 1.38%, 6.06% and 3.85%.
The like results for `CC(=O)N1CCn2c(nn(-c3ccncc3)c2=O)C1` were, in that order, -4.31%, -7.25%, -0.045%, -13.2% and -6.7%.
The like results for `CCCN1C(=O)c2c(C(=O)NCc3cccc(F)c3)ncn2CC1(C)C(=O)NCc1ccc(C)cc1` (stereo not drawn) were, in that order, -2.65%, 0.97%, 4.29%, 4.28% and 6.05%.
`Cc1nn(C)c(C)c1CNC(=O)C1CC(=O)N(c2n[nH]c3cccc(F)c23)C1` (stereo not drawn): the activity change, negative = inhibition in experiment [1] was -4.74%; in experiment [2], -1.52%; in experiment [3], 2.12%; in experiment [4], -3.79%; in experiment [5] it was -3.39%.
As to `COc1ccc(OC)c(S(=O)(=O)N2CCCOCCNC(=O)[C@@H]3CCCC[C@@H]32)c1`, the activity change, negative = inhibition in experiment [1] is -5.28%; in experiment [2] it was -2.39%; in experiment [3], 0.802%; in experiment [4], -8.81%; in experiment [5], 6.46%.
Take `Cn1nccc1Nc1nccc(-c2ccn([C@H](CO)c3ccc(Cl)c(F)c3)c(=O)c2)n1`: the activity change, negative = inhibition in experiment [1] is 2.16%; in experiment [2], 6.2%; in experiment [3] it was -2.34%; in experiment [4], -23.3%; in experiment [5], 3.94%.
Taken in the same sequence, the figures for `CCc1ccc(NC(=O)c2cc3n(n2)CC(C)(C(=O)NC2CCCCC2)N(C)C3=O)cc1` (stereo not drawn) were 0.273%, 0%, 8.97%, 10.7% and 5.09%.
As to `NCC(=O)N1CCC2(CC1)CN([S+](=O)([O-])c1ccccc1)CCO2`, the activity change, negative = inhibition in experiment [1] was -2.35%; in experiment [2] it was -4.72%; in experiment [3], 0.016%; in experiment [4] it was -11.2%; in experiment [5], 2.23%.
Take `O=[S+]([O-])(c1cccc(C(F)(F)F)c1)N1CCc2nc(-c3ccccc3)nc(-c3ccc(Cl)cc3)c2C1`: the activity change, negative = inhibition in experiment [1] was -1.93%; in experiment [2], -6.85%; in experiment [3], -1.34%; in experiment [4], -14.7%; in experiment [5], 6.21%.
The like results for `C=C1C(=O)O[C@@H]2C[C@@]3(C)CCC[C@H](C)C3=C[C@H]12` were, in that order, -0.784%, -3.2%, 5.11%, -13.1% and -4.51%.
The like results for `CC(C)CCN1CCC2(COc3ccccc3C(=O)N2)C1` (stereo not drawn) were, in that order, -7.44%, -7.61%, -8.97%, -10.7% and -9.85%.
As to `CN1CCN(Cc2cccc(OCC(O)CN3CCOCC3)c2)CC1(C)C` (stereo not drawn), the activity change, negative = inhibition was -3.38% in experiment [1]; -2.35% in experiment [2]; -5.48% in experiment [3]; -3.36% in experiment [4]; -17.7% in experiment [5].
With `C/C=C(\C)[C@@H]1C(C)=C[C@@H]2[C@H]([C@@H]1/C=C/C=C/C(=O)O)[C@@H](C)CC[C@@H]2O`, the activity change, negative = inhibition is 0.256% in experiment [1]; 3.38% in experiment [2]; 6.79% in experiment [3]; -36.4% in experiment [4]; -5.11% in experiment [5].
Turning to `CCC(=O)N1CCc2c(C(=O)NCC(C)C)cccc21`, the activity change, negative = inhibition in experiment [1] was -3.23%; in experiment [2], -1.67%; in experiment [3] it was -2.98%; in experiment [4], -5.63%; in experiment [5] it was -4.14%.
For `CCN(CC1CCCN(CCc2cccc(OC)c2)C1)C(=O)CSC` (stereo not drawn), the activity change, negative = inhibition in experiment [1] is -2.1%; in experiment [2], -1.84%; in experiment [3], -6.13%; in experiment [4], -9.89%; in experiment [5] it was 9.16%.
The like results for `CC1(C(=O)NC2CCCC2)Cn2c(cc3ccccc32)C(=O)N1Cc1cccs1` (stereo not drawn) were, in that order, -0.439%, 4.5%, 4.51%, -9.79% and 0.229%.
Taken in the same sequence, the figures for `Nc1ncnc2c1c(-c1ccc(Cl)cc1)nn2-c1cccc(-c2cnnn2Cc2cccc(-c3ccccc3)c2)c1` were 5.58%, -24%, 8.45%, -33.7% and -17.3%.
